According to the supplement of paper PMC12217912:
The list shows a part of the results. Sequences were assembled here from the parent chain. Values near 0.05 are background.

B1: TEV protease; numbered along this chain (parent)
chain: MGESLFKGPRDYNPISSSICHLTNESDGHTTSLYGIGFGPFIITNKHLFRRNNGTLVVQSLHGVFKVKDTTTLQQHLVDGRDMIIIRMPKDFPPFPQKLKFREPQREERICLVTTNFQTKSMSSMVSDTSCTFPSGDGIFWKHWIQTKDGQCGSPLVSTRDGFIVGIHSASNFTNTNNYFTSVPKNFMELLTNQEAQQWVSGWRLNADSVLWGGHKVFMVKPEEPFQPVKEATQL

Variants of: B1
Experiment: raw area under fraction-flipped curve 0-4 h after induction (AUC4h, not background-subtracted), DNA-recorder readout of cleavage of the substrate (dimensionless); higher = more cleavage of the substrate by the protease variant
Details: temperature: 34 °C; time window: 0-4 h after rhamnose induction
Procedure: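 In vivo DNA recorder in E. coli TOP10(DE3) ΔrhaA at 34 °C. Each TEVp single-site mutant (parent TEVp 0) is paired with a single-site variant of the 7-mer TEVs (canonical ENLYFQ|S). The substrate sits between flexible linkers in a Bxb1-sfGFP-TEVs-SsrA fusion, so cleavage stabilises Bxb1 and speeds flipping of a recombination array, read by NGS. The value is the raw area under the fraction-flipped curve over 0-4 h after rhamnose induction (AUC4h), with ≥20 reads per time point. It is not background-subtracted; inactive controls average about 0.047.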
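Also: Bxb1 expression induced with 0.2% (w/v) L-rhamnose at OD600 near 0.5, cultures sampled hourly, flipped fraction per protease–substrate barcode pair counted by paired-end Illumina sequencing.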

Variant | area with substrate ENCYFQS | area with substrate ENDYFQS | area with substrate ENFYFQS | area with substrate ENGYFQS | area with substrate ENIYFQS | area with substrate ENPYFQS | area with substrate ENRYFQS | area with substrate ENSYFQS | area with substrate ENVYFQS | area with substrate ENEYFQS
MGESLFKGPRDYNPISSSICHLTNESDGHTTSLYGIGFGPFIITNKHLFRRNNGTLVVQSLHGVFKVKDTTTLQQHLVDGRDMIIIRMPKDFPPFPQKLKFREPQREERICLVTTNFQTKSMSSMVSDTSCTFPSGDGIFWKHWIQTKDGQCGSPLVSTRDGFIVGIHSASNFTNTNNYFTSVPKNFMELLTNQEAQQWVSGWRLNADSVLWGHHKVFMVKPEEPFQPVKEATQL [G214H] | 0.0789 | 0.0619 | 0.0618 | 0.0565 | 0.0653 | 0.0732 | 0.0499 | 0.0664 | 0.0688 | 
MGESLFKGPRDYNPISSSICHLTNESDGHTTSLYGIGFGPFIITNKHLFRRNNGTLVVQSLHGVFKVKDTTTLQQHLVDGRDMIIIRMPKDFPPFPQKLKFREPQREERICLVTTNFQTKSMSSMVSDTSCTFPSGDGIFWKHWIQTKDGQCGSPLVSTRDGFIVGIHSASNFTNTNNYFTSVPKNFMELLTNQEAQQWVSGWRLNADSVLWGGHKVFMVKPEEYFQPVKEATQL [P225Y] | 0.0799 | 0.0596 | 0.0527 |  |  |  | 0.0811 | 0.0032 | 0.0725 | 0.0639
MGESLFKGPRDYNPISSSICHLTNESDGHTTSLYGIGFGPFIITNKHLFRRNNGTLVVQSLHGVFKVKDTTTLQQHLVDGRDMIIIRMPKDFPPFPQKLKFREPQREERICLVTTNFQTKSMSSMVSDTSCTFPSGDGIFWKHWIQTKDGQCGSPLVSTRDGFIVGIHSASNFTNTNNYFTSVPKNFMELLTNQEAQQWVSGWRLNADSVLWGGHKVFMVKPEEPPQPVKEATQL [F226P] | 0.0669 |  |  | 0.0564 |  |  | 0.0582 | 0.0821 |  | 
MGESLFKGPRDYNPISSSICHLTNESDGHTTSLYGIGFGPFIITNKHLFRRNNGTLVVQSLHGVFKVKDTTTLQQHLVDGRDMIIIRMPKDFPPFPQKLKFREPQREERICLVTTNFQTKSMSSMVSDTSCTFPSGDGIFWKHWIQTKDGQCGSPLVSTRDGFIVGIHSASNFTNTNNYFTSVPKNFMELLTNQEAQQWVSGWRLNADSVLWGGHKVFMVKPEEPFQIVKEATQL [P228I] | 0.0741 |  |  |  |  |  | 0.0522 | 0.109 | 0.0666 | 
MGESLFKGPRDYNPISSSICHLTNESDGHTTSLYGIGFGPFIITNKHLFRRNNGTLVVQSLHGVFKVKDTTTLQQHLVDGRDMIIIRMPKDFPPFPQKLKFREPQREERICLVTTNFQTKSMSSMVSDTSCTFPSGDGIFWKHWIQTKDGQCGSPLVSTRDGFIVGIHSASNFTNTNNYFTSVPKNFMELLTNQEAQQWVSGWRLNADSVLWGGHKVFMVKPEEPFQPVREATQL [K230R] | 0.0494 | 0.0385 |  | 0.0388 |  |  |  | 0.0672 |  | 
MGESLFKGPRDYNPISSSICHLTNESDGHTTSLYGIGFGPFIITNKHLFRRNNGTLVVQSLHGVFKVKDTTTLQQHLVDGRDMIIIRMPKDFPPFPQKLKFREPQREERICLVTTNFQTKSMSSMVSDTSCTFPSGDGIFWKHWIQTKDGQCGSPLVSTRDGFIVGIHSASNFTNTNNYFTSVPKNFMELLTNQEAQQWVSGWRLNADSVLWGGHKVFMVKPEEPFQPVKEITQL [A232I] | 0.0681 | 0.0564 | 0.0647 |  | 0.106 |  |  |  |  | 
MGESLFKGPRDYNPISSSICHLTNESDGHTTSLYGIGFGPFIITNKHLFRRNNGTLVVQSLHGVFKVKDTTTLQQHLVDGRDMIIIRMPKDFPPFPQKLKFREPQREERICLVTTNFQTKSMSSMVSDTSCTFPSGDGIFWKHWIQTKDGQCGSPLVSTRDGFIVGIHSASNFTNTNNYFTSVPKNFMELLTNQEAQQWVSGWRLNADSVLWGGHKVFMVKPEEPFQPVKEATEL [Q234E] | 0.0682 | 0.0329 |  | 0.0588 | 0.113 | 0.05 |  | 0.0644 | 0.0573 | 0.0497
MGESLFKGPRDYNPISSSICHLTNESDGHTTSLYGIGFGPFIITNKHLFRRNNGTLVVQSLHGVFKVKDTTTLQQHLVDGRDMIIIRMPKDFPPFPQKLKFREPQREERICLVTTNFQTKSMSSMVSDTSCTFPSGDGIFWKHWIQTKDGQCGSPLVSTRDGFIVGIHSASNFTNTNNYFTSVPKNFMELLTNQEAQQWVSGWRLNADSVLWGGHKVFMVKPEEPFQPVKEATQV [L235V] | 0.0754 | 0.0543 | 0.0593 | 0.108 |  |  |  |  | 0.0689 | 0.062
MWESLFKGPRDYNPISSSICHLTNESDGHTTSLYGIGFGPFIITNKHLFRRNNGTLVVQSLHGVFKVKDTTTLQQHLVDGRDMIIIRMPKDFPPFPQKLKFREPQREERICLVTTNFQTKSMSSMVSDTSCTFPSGDGIFWKHWIQTKDGQCGSPLVSTRDGFIVGIHSASNFTNTNNYFTSVPKNFMELLTNQEAQQWVSGWRLNADSVLWGGHKVFMVKPEEPFQPVKEATQL [G2W] |  | 0.0487 |  |  |  |  |  | 0.0543 |  | 0.0594
MGESLFKGERDYNPISSSICHLTNESDGHTTSLYGIGFGPFIITNKHLFRRNNGTLVVQSLHGVFKVKDTTTLQQHLVDGRDMIIIRMPKDFPPFPQKLKFREPQREERICLVTTNFQTKSMSSMVSDTSCTFPSGDGIFWKHWIQTKDGQCGSPLVSTRDGFIVGIHSASNFTNTNNYFTSVPKNFMELLTNQEAQQWVSGWRLNADSVLWGGHKVFMVKPEEPFQPVKEATQL [P9E] |  | 0.0655 | 0.0658 | 0.0643 |  | 0.0595 | 0.0581 |  | 0.0679 | 0.0596

Same assay, conditions: temperature: 34 °C; time window: 0-4 h after rhamnose induction

Variant | area with substrate ENKYFQS | area with substrate ENNYFQS | area with substrate ENQYFQS | area with substrate ENYYFQS | area with substrate ENMYFQS | area with substrate ENTYFQS | area with substrate ENHYFQS
MGESLFKGPRDYNPISSSICHLTNESDGHTTSLYGIGFGPFIITNKHLFRRNNGTLVVQSLHGVFKVKDTTTLQQHLVDGRDMIIIRMPKDFPPFPQKLKFREPQREERICLVTTNFQTKSMSSMVSDTSCTFPSGDGIFWKHWIQTKDGQCGSPLVSTRDGFIVGIHSASNFTNTNNYFTSVPKNFMELLTNQEAQQWVSGWRLNADSVLWGGHKVFMVKPEEYFQPVKEATQL [P225Y] | 0.0797 | 0.0571 | 0.0568 | 0.0515 |  |  | 
MGESLFKGPRDYNPISSSICHLTNESDGHTTSLYGIGFGPFIITNKHLFRRNNGTLVVQSLHGVFKVKDTTTLQQHLVDGRDMIIIRMPKDFPPFPQKLKFREPQREERICLVTTNFQTKSMSSMVSDTSCTFPSGDGIFWKHWIQTKDGQCGSPLVSTRDGFIVGIHSASNFTNTNNYFTSVPKNFMELLTNQEAQQWVSGWRLNADSVLWGGHKVFMVKPEEPPQPVKEATQL [F226P] |  | 0.0693 |  |  | 0.0645 | 0.0837 | 
MGESLFKGPRDYNPISSSICHLTNESDGHTTSLYGIGFGPFIITNKHLFRRNNGTLVVQSLHGVFKVKDTTTLQQHLVDGRDMIIIRMPKDFPPFPQKLKFREPQREERICLVTTNFQTKSMSSMVSDTSCTFPSGDGIFWKHWIQTKDGQCGSPLVSTRDGFIVGIHSASNFTNTNNYFTSVPKNFMELLTNQEAQQWVSGWRLNADSVLWGGHKVFMVKPEEPFQPVREATQL [K230R] |  | 0.0788 | 0.0565 | 0.0375 |  | 0.0623 | 0.0305
MGESLFKGPRDYNPISSSICHLTNESDGHTTSLYGIGFGPFIITNKHLFRRNNGTLVVQSLHGVFKVKDTTTLQQHLVDGRDMIIIRMPKDFPPFPQKLKFREPQREERICLVTTNFQTKSMSSMVSDTSCTFPSGDGIFWKHWIQTKDGQCGSPLVSTRDGFIVGIHSASNFTNTNNYFTSVPKNFMELLTNQEAQQWVSGWRLNADSVLWGGHKVFMVKPEEPFQPVKEITQL [A232I] | 0.0653 |  | 0.0562 |  |  |  | 
MGESLFKGPRDYNPISSSICHLTNESDGHTTSLYGIGFGPFIITNKHLFRRNNGTLVVQSLHGVFKVKDTTTLQQHLVDGRDMIIIRMPKDFPPFPQKLKFREPQREERICLVTTNFQTKSMSSMVSDTSCTFPSGDGIFWKHWIQTKDGQCGSPLVSTRDGFIVGIHSASNFTNTNNYFTSVPKNFMELLTNQEAQQWVSGWRLNADSVLWGGHKVFMVKPEEPFQPVKEATEL [Q234E] |  | 0.0712 | 0.0408 |  |  | 0.0362 | 0.0573
MGESLFKGPRDYNPISSSICHLTNESDGHTTSLYGIGFGPFIITNKHLFRRNNGTLVVQSLHGVFKVKDTTTLQQHLVDGRDMIIIRMPKDFPPFPQKLKFREPQREERICLVTTNFQTKSMSSMVSDTSCTFPSGDGIFWKHWIQTKDGQCGSPLVSTRDGFIVGIHSASNFTNTNNYFTSVPKNFMELLTNQEAQQWVSGWRLNADSVLWGGHKVFMVKPEEPFQPVKEATQV [L235V] | 0.0616 |  | 0.0489 |  |  | 0.0666 | 
MWESLFKGPRDYNPISSSICHLTNESDGHTTSLYGIGFGPFIITNKHLFRRNNGTLVVQSLHGVFKVKDTTTLQQHLVDGRDMIIIRMPKDFPPFPQKLKFREPQREERICLVTTNFQTKSMSSMVSDTSCTFPSGDGIFWKHWIQTKDGQCGSPLVSTRDGFIVGIHSASNFTNTNNYFTSVPKNFMELLTNQEAQQWVSGWRLNADSVLWGGHKVFMVKPEEPFQPVKEATQL [G2W] |  |  | 0.0586 |  |  |  | 0.047
MGESLFKGERDYNPISSSICHLTNESDGHTTSLYGIGFGPFIITNKHLFRRNNGTLVVQSLHGVFKVKDTTTLQQHLVDGRDMIIIRMPKDFPPFPQKLKFREPQREERICLVTTNFQTKSMSSMVSDTSCTFPSGDGIFWKHWIQTKDGQCGSPLVSTRDGFIVGIHSASNFTNTNNYFTSVPKNFMELLTNQEAQQWVSGWRLNADSVLWGGHKVFMVKPEEPFQPVKEATQL [P9E] | 0.0401 |  |  |  | 0.0898 | 0.0537 | 0.0383
